Some of the results follow.

This assay deals with PfHDP1 homeodomain (GST-tagged). Briefly: gcPBM binding intensity (ln(normalized median fluorescence intensity)); higher = stronger DNA binding. The gist of the method: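 After 1 h on an Agilent 4 × 180k array of primer-extended double-stranded 36-bp intergenic genomic probes and negative controls, bound GST-tagged P. falciparum DNA-binding domains were detected with Alexa488 anti-GST antibody and scanned at 488 nm. The domains had been expressed in E. coli, and binding took place in 1× PBS with 1% milk, 0.2 mg/ml BSA, 0.5% salmon testes DNA and 0.03% Triton X-100. Binding intensity is the highest Masliner-normalised natural-log median intensity across replicate spots of either probe orientation.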
For “TTTATAAACAAATGAACACACAAACATATATATATA [CACACA_site5713]”, the “gcPBM binding intensity (ln)” value was determined as 8.87.
Then “TTTTTTCATTAGAAAACATGCAAATGTTTTTCACTT [TGCATGCA_site127]”, with 6.46; and “CTATTATAATATTTTACACACCATGTAAGATATATA [CACACA_site7492]”, with 6.67.
With “TTTATTTTATCATTTGCACACGCACCCAGACATAAA [CACACA_site4347]” the figure was 10.6; with TCTATTTTCTTATGAATGCACTAATTTATAAAACGT, 8.44.
Then “TAACTAAGGAATAATACACACAGAAATATAGATTTA [CACACA_site6293]”, with 6.5; and “CAACAAAAATTATTTACACACAAAAGGCAAGGAAAT [CACACA_site1971]”, with 7.11.
In the case of “AGATTTATACAAATATGTACACACTAAATATATATT [XGTACX_site864]”, the “gcPBM binding intensity (ln)” value was found to be 6.61.
With “AAAAAGGGTATTATTACACACACGTAAATATTAATA [CACACA_site101]” the figure was 6.48; with “ATTAGGATATATTAAAGTACTAATATAATACATTTT [XGTACX_site7386]”, 5.88; with “TATTCATTTATAAGCTGTACACATTAATTTGAGCTA [XGTACX_site3616]”, 6.33.
Then “ATATAGTATTAATTTGCATGTCATGTATTAGGTCGA [TGCATGCA_site540]”, with 6.58; and “CTTTTTTTAATATGCACACATATATTTTATATATTA [CACACA_site2077]”, with 10.3.
With “TGTAAGTTGATATAATGTACATGTTTGATTTTTTTT [XGTACX_site7687]” the figure was 6.34.
With “TTTTATATTTTTTGTGGTACATTTAGAGAACCAAAA [XGTACX_site1695]”, the “gcPBM binding intensity (ln)” value is 6.04.
With “TTTGAATTTTTTAACACACACATGTCTGGATATATA [CACACA_site1645]” the figure was 6.74; with “GAAAAAAAAAAAAAAAGTACATGTCATAAATTGTAT [XGTACX_site1461]”, 6.32.
With “TTTTCCTTAACACACGTTTATATAAAAAATTAAAAT [XGTACX_negctrl_site115]” the figure was 6.7; with “ATCCATCTTTTATATAGTACTTTATAATATATATAT [XGTACX_site8064]”, 7.83; with “CAATGTTAATATAATACACACAATATGTATTTGTCT [CACACA_site1162]”, 6.8.
On to “TTGTTAATATATATATGTACTTATTTATTTATTTAT [XGTACX_site2274]”, for which the “gcPBM binding intensity (ln)” value worked out at 6.39.
With “AGTATTTCCATATGTACATGCAAAAGGAAAGATATA [TGCATGCA_site850]” the figure was 6.66; with “TATTTTTCCCTATGCACACACACCGTATATATAATA [CACACA_site4758]”, 10.1.
With “TGTCCAATTTTTTATCGTACATAATATATAAATAAA [XGTACX_site1705]” the figure was 6.89.
Consider “AAATATAAAAATAGCACACATATATACATATATATA [CACACA_site56]”, for which the “gcPBM binding intensity (ln)” value is 7.22.
With “TATAAAAATGTGTATGTACACACTTTATTTTTAATA [CACACA_site2532]” the figure was 6.38.
With “AGAAACGTAAGTTATACACACATGTCAAAAGAAAAA [CACACA_site312]” the figure was 6.7; with “AAATTAAAATATATATGTACATATATATATATATAT [XGTACX_site7844]”, 9.47.
With “GAGCTTTGGATGAAAGCATGCGATGAATGGATAAAA [TGCATGCA_site786]” the figure was 6.91.
With “ATTTATTTCAATAAACTTCTTTTCTTTAACAATTAC [CACACA_negctrl_site1222]”, the “gcPBM binding intensity (ln)” value was 6.05.
Turning to CTGTAAAATGTGATGGTGCATATTAATTTAGTTGTA, the “gcPBM binding intensity (ln)” value worked out at 9.96.
With “AACACAAATAAGTATTTGGATTATATTACATTTATA [CACACA_negctrl_site465]” the figure was 6.39.
Then “ATAAAAATAAATAAATGTACATATATATATATATAT [XGTACX_site1277]”, with 9.28.
With “TAAATTAAAAAAAAAAACAAAAAAAAAGCAACAAAA [CACACA_negctrl_site1318]”, the “gcPBM binding intensity (ln)” value is 6.62.
“TAAATAGGAAAACCTATACACACTTTAAAAAAAATA [CACACA_site1621]”: the “gcPBM binding intensity (ln)” value is 6.11.
With “TTGAATATTTAAAAACGTACATAAAATTATTTGATT [XGTACX_site5422]” the figure was 6.14; with “TCAAATAGAAAATAAAGTACTTAATTTTTAGGAACA [XGTACX_site1446]”, 6.78; with “ATATATATATTTATAGTGCATTTATATTAAAATATC [GTGCAC_site9818]”, 8.5.
Then “ATATATATTTATATATGTACATATTAATATATATAT [XGTACX_site1144]”, with 7.79; and “ATATTTATATTTTTTTGTACATATATAATTTTATAA [XGTACX_site4151]”, with 6.6; and “TTATAGTATTTATAATGTACAAATATATTTTATTTT [XGTACX_site5015]”, with 6.29.
Then “CCAAAGGGGGTATACTGTACATATAGTGGTTATATA [XGTACX_site1515]”, with 7.11; and “TGAAAATTTTAATGAGGAAATAAAATAAATATAATA [GTGCAC_negctrl_site159]”, with 6.34.
Turning to “ATAGGCACTTTTTGCACACGTATGAATAACAAAATA [CACACA_site5069]”, the “gcPBM binding intensity (ln)” value is 10.4.
In the case of “TTTATTAATAGACACACACACACACGCAAAATAAAA [CACACA_site6255]”, the “gcPBM binding intensity (ln)” value amounted to 7.16.
As to “AATATTTTAAGGCACACACACAAAAAAAAAAAAAAA [CACACA_site2890]”, the “gcPBM binding intensity (ln)” value was 6.38.
With “ATTTAAGGGGTGTATGCACACGACTATTCCGTATGA [CACACA_site4738]”, the “gcPBM binding intensity (ln)” value worked out at 9.3.
Then “TAATTTAGTATCTTTACATGCGGGCATTATGTCATA [TGCATGCA_site167]”, with 6.05.
Then “CCATTTATTATTTGGGGTACATTTAATTAATATTTT [XGTACX_site5940]”, with 7.08.
As to “CTTTATTATAAGATTACACACATGTGTTATAATTTA [CACACA_site3169]”, the “gcPBM binding intensity (ln)” value came to 6.57.
Then TTGACCTTAAGAAGGTTGCACTAATCATTCAAAGTT, with 7.4.
Take “AATTTAATATAATGCACACATAAAAAAAAAAAAAAA [CACACA_site123]”: the “gcPBM binding intensity (ln)” value came out at 10.5.
Then “TTTTAAACAAAAAATTGTACAATTAGTGTATAATCC [XGTACX_site778]”, with 7.21; and “AAAAAAAAAAGACACACACACAAATACAAATACATA [CACACA_site6334]”, with 6.81.
Then “AAAGGAAATTAAAATTGATTACATATATAAAAAAAC [XGTACX_negctrl_site196]”, with 6.48; and “ACTTGTTTTCAATGTAAAATACAATTTTCATTTATT [CACACA_negctrl_site435]”, with 6.22; and “AAGTATTACAACCACACACACACCTATATATTATAT [CACACA_site4158]”, with 6.89.
With “AATGAAAAATGTATCGTTAAAGGGTATCTTAAGGAT [XGTACX_negctrl_site222]” the figure was 6.31; with “CCAAAGAAATATAATACACACAAGAATATATTGGAT [CACACA_site6018]”, 6.99; with “GAGAAATGGGGACACACACACATATTATAGATATAT [CACACA_site6829]”, 6.52.
In the case of “TAAGGATAAAATAAATGTACATATGTAAAATTATTA [XGTACX_site4170]”, the “gcPBM binding intensity (ln)” value worked out at 6.18.
Turning to “TTGTTTGATATCTTTGTCACGAAAAAAATATATATA [GTGCAC_negctrl_site54]”, the “gcPBM binding intensity (ln)” value amounted to 6.47.
Consider “TTTTTAATAATCTCTCAAAATGTTCTTATATTTTAC [CACACA_negctrl_site1691]”, for which the “gcPBM binding intensity (ln)” value was 5.92.
With “TAATCTCATAAAACCGCACACACATAAAATTTGCAT [CACACA_site3890]” the figure was 6.87; with “TTAACAGTAAAACACAGTACATATATACTTAAAACA [XGTACX_site1930]”, 6.57; with ATTTTTTTCCTAATGGTGCGAATAAATATCCATACC, 7.01.
In the case of “TTTTTTTATTATACTAGTACATATATATACAGCACA [XGTACX_site3464]”, the “gcPBM binding intensity (ln)” value was found to be 6.86.
Consider “AAAAAAAAAAAAGGAACACACAAGTAACAATAAATT [CACACA_site2481]”, for which the “gcPBM binding intensity (ln)” value came to 6.41.
With “AAAGCTTACATATACACACATACATAAATTCATAAA [CACACA_site2469]” the figure was 6.66; with “ATACTAAAGAAACACACACACATATATATATAGAAT [CACACA_site100]”, 7.03; with “TTTACACCCTAAAAATGTACAAGAAAGATTATATTA [XGTACX_site1102]”, 6.26.
With “ACATATATATAAAGGTGTACACATATATATATATAT [XGTACX_site4779]” the figure was 9.37.
“TTTGTCATTTTATTATGTACTCAGCATATAGGGGGG [XGTACX_site505]”: the “gcPBM binding intensity (ln)” value turned out to be 8.48.
As for “GATTTTTAAAATATCACACATAAAAAAAAAAAAAAA [CACACA_site5516]”, the “gcPBM binding intensity (ln)” value stood at 6.47.
For the sequence “AAAAAAATTCTGACTTGTACATATAAAATTTACAAA [XGTACX_site4408]”, the “gcPBM binding intensity (ln)” value was found to be 5.9.
Then “TAATTTAATAATTAGACACACATGTGGAAAATAAAA [CACACA_site5401]”, with 7.1; and “ATATATTTCCTGAGGAGTACTATGAAAGACAAAAAA [XGTACX_site5628]”, with 6.77.
For the sequence “ATAATTTTGATTATCACACATATATATATATATATG [CACACA_site5882]”, the “gcPBM binding intensity (ln)” value was found to be 6.96.
With ATTTATTACAAATGAATGCACTATATCTTAATTTTG the figure was 7.82.
With “TAAGAAAAAAGTAAATGTACAGAGAAAATTATCTAT [XGTACX_site7374]” the figure was 6.36; with “ATTTATTTTTTTATCACACATTTGTGAAATGTGCAT [CACACA_site5869]”, 6.83.
With “GTAAAAAGATAATGAAGTACATTTTTTCATTTTTAT [XGTACX_site5579]” the figure was 5.97.
As to “AAAAAAAAAAAACACACACACACACCCATATACATA [CACACA_site2664]”, the “gcPBM binding intensity (ln)” value amounted to 6.75.
For the sequence “ATATATTCAATTCATACACACACAATTTAAGAATGA [CACACA_site9289]”, the “gcPBM binding intensity (ln)” value came to 6.64.
With “CATATCCTTACGAACTGTACAATATTAAGAATAAAA [XGTACX_site1651]” the figure was 6.33.
With “ATATTAAGGTTTATATTTTAACTTATTATTTTATTC [CACACA_negctrl_site795]” the figure was 6.12; with “ACATATTTATATATGTGTACATAAATATTCTTTTAA [XGTACX_site8238]”, 6.37.
Then “ATAAAAAAATCAGACACACACACGTAAACCCATACA [CACACA_site2773]”, with 6.85; and “GTTACTGCATACATAACACACATATTCAAAACCCAT [CACACA_site5856]”, with 6.89.
